Reference: US20230021880A1, “Cladribine regimen for treating progressive forms of Multiple Sclerosis” (Merck Patent GmbH, priority 2017, published 2023)

Legend:
[1] = Cladribine pharmacokinetics following oral administration; details: oral
patients with RRMS = assay: ONWARD study: Cladribine tablets 3.5 mg/kg added on to IFN-β, RRMS patients; assay type: in vivo, human; details: RRMS subgroup
Text: (§1) A supportive study in patients treated with Cladribine as an add-on to interferon-beta vs. placebo+interferon-beta also included a limited number of patients with secondary progressive MS (26 patients). […] There was no difference in annualized relapse rate between patients with relapsing-remitting MS and patients with secondary progressive MS with relapses.
(§2) Patients aged 18-65 years were eligible to enter the ONWARD study if they fulfilled the following criteria. • a diagnosis of RRMS or SPMS with relapses (2005 McDonald criteria) • treatment with IFN-β for ≥48 consecutive weeks before screening, with ≥1 MS relapse during that period • clinical stability (other than relapses) during the 28 days before screening • an Expanded Disability Status Scale. […]

patients with SPMS = assay: ONWARD study: Cladribine tablets 3.5 mg/kg added on to IFN-β, SPMS patients; assay type: in vivo, human; details: SPMS subgroup
Text: as §1, §2

clinical = details: human, plasma, po, 10 mg

With `Nc1nc(Cl)nc2c1ncn2[C@H]1C[C@H](O)[C@@H](CO)O1` [Cladribine, 2-chloro-2′deoxyadenosine] the “median Tmax” value ([1]; fasted state) was 0.5 h, the “median Tmax” value ([1]; with a high-fat meal) was 1.5 h and the “effect on disability progression” value (patients with RRMS) was “could not be shown”. The “effect on disability progression” value (patients with SPMS) was “could not be shown” and the Cmax (clinical) was 22 to 29 ng/mL.
